The results in this text go back to the BET-seq Pho4 binding data (Le et al. 2018).

The other results are listed elsewhere or left out. Values were computed here from the reads of four pooled replicates and scatter widely.

The assay has as its target T1, Pho4 (S. cerevisiae) (UniProt P07270).
T1 sequence: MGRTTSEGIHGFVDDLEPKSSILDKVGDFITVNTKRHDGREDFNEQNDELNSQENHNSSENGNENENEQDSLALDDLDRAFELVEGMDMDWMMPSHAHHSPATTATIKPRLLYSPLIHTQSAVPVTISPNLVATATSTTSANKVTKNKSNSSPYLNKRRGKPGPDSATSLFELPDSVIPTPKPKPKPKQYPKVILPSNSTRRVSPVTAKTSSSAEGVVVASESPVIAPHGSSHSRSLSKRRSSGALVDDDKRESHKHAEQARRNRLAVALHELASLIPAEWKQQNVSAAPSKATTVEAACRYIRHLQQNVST
As to the kind of experiment: relative binding free energy (BET-seq); higher = weaker binding. Particulars: reference: library average.
With TGCATCACGTGTTGGC, the “relative binding free energy” value came out at 0.29 kcal/mol.
As for GTGCACACGTGGGGGA, the figure is -0.11 kcal/mol.
For the sequence TTCTTCACGTGGATGT, the “relative binding free energy” value came out at 0.23 kcal/mol.
Take AAGATCACGTGTAAGG: the “relative binding free energy” value worked out at 0.22 kcal/mol.
Consider TGCATCACGTGTTATG, for which the “relative binding free energy” value is 0.01 kcal/mol.
As for AGTCGCACGTGTGTGG, the figure is 0.02 kcal/mol.
The value for CTAGTCACGTGGTCGT was -0.06 kcal/mol; that for TGTGTCACGTGGTAAA was 0.06 kcal/mol.
The value for CGGATCACGTGGCAGG was 0.17 kcal/mol; that for TGGATCACGTGGATGG was 0.23 kcal/mol.
As for ATGTGCACGTGAACGG, the “relative binding free energy” value came to 0.03 kcal/mol.
The value for TTGTGCACGTGGCCCG was -0.11 kcal/mol.
As for TCAAACACGTGTGGGG, the “relative binding free energy” value is 0.09 kcal/mol.
Take AAAGTCACGTGGGGCT: the “relative binding free energy” value is -0.03 kcal/mol.
Regarding TGAGGCACGTGGTCGT, the “relative binding free energy” value is -0.17 kcal/mol.
In the case of GATTTCACGTGGGAAG, the “relative binding free energy” value was 0.26 kcal/mol.
Take TTTGACACGTGGATCT: the “relative binding free energy” value was -0.08 kcal/mol.
As for GGGAGCACGTGATGTT, the figure is 0.2 kcal/mol; as for GCAAGCACGTGTTGGT, -0.12 kcal/mol.
For the sequence GGCGTCACGTGAGGTA, the “relative binding free energy” value came out at 0.34 kcal/mol.
Take CGCGACACGTGTTTGG: the “relative binding free energy” value was determined as 0.09 kcal/mol.
The value for GTAATCACGTGGGCTC was 0.28 kcal/mol; that for TTCATCACGTGCTTTT was 0.22 kcal/mol; that for GAAGCCACGTGTGTGT was -0.07 kcal/mol.
As for TGTCACACGTGAGTGA, the figure is 0.28 kcal/mol.
Consider GTTGGCACGTGTCAAG, for which the “relative binding free energy” value is -0.1 kcal/mol.
The value for TTCATCACGTGCCGTT was 0.28 kcal/mol; that for AAAATCACGTGGGGTG was 0.09 kcal/mol; that for CGTGCCACGTGTTTTG was -0.05 kcal/mol.
As for ATCGTCACGTGGGAAG, the figure is 0.02 kcal/mol.
Turning to TAGGTCACGTGGCCTG, the “relative binding free energy” value is -0.1 kcal/mol.
Regarding TGAGCCACGTGGGGCG, the “relative binding free energy” value is -0.17 kcal/mol.
As for TGGAGCACGTGAAAAG, the figure is 0.2 kcal/mol.
The value for GTATACACGTGAAGTT was 0.27 kcal/mol; that for AAGTGCACGTGAGGTA was 0.14 kcal/mol; that for AGAAGCACGTGAAGAG was 0.41 kcal/mol.
As for GGGGGCACGTGCTGCG, the figure is -0.09 kcal/mol; as for ATATTCACGTGGTGAA, 0.15 kcal/mol.
As to GTCATCACGTGTTTGT, the “relative binding free energy” value worked out at 0.15 kcal/mol.
As for GGTGACACGTGAAAGG, the figure is 0.33 kcal/mol; as for TTTGGCACGTGTTCGA, -0.25 kcal/mol.
As for AAGTTCACGTGTGATA, the figure is 0.17 kcal/mol; as for TAAGACACGTGTTGGG, 0.01 kcal/mol; as for AAAATCACGTGCGTGT, 0.23 kcal/mol.
As for CAGGTCACGTGCTGGG, the figure is 0.07 kcal/mol.
On to CATGGCACGTGCGGGT, for which the “relative binding free energy” value was -0.34 kcal/mol.
As for TGGTTCACGTGCTAGG, the figure is 0.13 kcal/mol; as for CTGGTCACGTGATGTG, 0.14 kcal/mol.
As to AGCAGCACGTGAATGT, the “relative binding free energy” value is 0.32 kcal/mol.
As for ATGGGCACGTGCGCGG, the figure is -0.27 kcal/mol.
TATTTCACGTGTGAAT: the “relative binding free energy” value is 0.32 kcal/mol.
As for CAGGCCACGTGGGGTG, the figure is -0.32 kcal/mol.
The value for TTTGTCACGTGTCGTA was 0.1 kcal/mol; that for CGAAGCACGTGTATGG was 0 kcal/mol; that for ATTAGCACGTGGCTGG was -0.09 kcal/mol.
On to TGCTGCACGTGGTTTT, for which the “relative binding free energy” value is -0.06 kcal/mol.
Consider GACTGCACGTGGAGGT, for which the “relative binding free energy” value turned out to be 0.1 kcal/mol.
The value for TCAGTCACGTGGGGAT was -0.03 kcal/mol; that for ATTGGCACGTGTCATA was -0.17 kcal/mol.
As for TGTAACACGTGATACG, the figure is 0.25 kcal/mol; as for AGAGGCACGTGTGTAG, -0.11 kcal/mol.
Consider GTGGCCACGTGTGTGA, for which the “relative binding free energy” value turned out to be 0.05 kcal/mol.
As for AAGGACACGTGTTATT, the figure is 0.04 kcal/mol; as for AGGAGCACGTGTTGTA, 0.05 kcal/mol; as for AGTTACACGTGTAGCG, 0.1 kcal/mol.
On to TGGATCACGTGCGTAG, for which the “relative binding free energy” value was 0.06 kcal/mol.
With TTGCGCACGTGTAGTA, the “relative binding free energy” value is -0.08 kcal/mol.
Turning to AGTCGCACGTGAGAGT, the “relative binding free energy” value worked out at 0.16 kcal/mol.
The value for TGTGGCACGTGCGGCT was -0.1 kcal/mol; that for TCATGCACGTGTTATT was -0.02 kcal/mol; that for TAAGTCACGTGCATTG was 0.09 kcal/mol.
As for ATTCGCACGTGGGGGG, the figure is -0.17 kcal/mol; as for CGTGGCACGTGGTTCA, -0.11 kcal/mol.
